# The whole screen tested about 230,000 compounds, of which about 3,600 (1.6%) were called active. Inconclusive results, whose numbers are uncertain, are shown with a selection of clear calls. Calls follow the shape of the dose curve; as a rule, active = well fitted inhibition curve with a large enough effect (not every such curve was filed as active); inconclusive = small, poorly fitted or top-dose-only effect, or another doubt; inactive = no such curve, though single readings can be large or run the other way. Where the call is inconclusive, the potency comes from a doubtful curve fit.
# Biological target: Lysine-specific demethylase 4E (Homo sapiens) (UniProt B2RXH2)
# UniProt B2RXH2, sequence (B2RXH2 whole entry, looked up, the tested form may be a part): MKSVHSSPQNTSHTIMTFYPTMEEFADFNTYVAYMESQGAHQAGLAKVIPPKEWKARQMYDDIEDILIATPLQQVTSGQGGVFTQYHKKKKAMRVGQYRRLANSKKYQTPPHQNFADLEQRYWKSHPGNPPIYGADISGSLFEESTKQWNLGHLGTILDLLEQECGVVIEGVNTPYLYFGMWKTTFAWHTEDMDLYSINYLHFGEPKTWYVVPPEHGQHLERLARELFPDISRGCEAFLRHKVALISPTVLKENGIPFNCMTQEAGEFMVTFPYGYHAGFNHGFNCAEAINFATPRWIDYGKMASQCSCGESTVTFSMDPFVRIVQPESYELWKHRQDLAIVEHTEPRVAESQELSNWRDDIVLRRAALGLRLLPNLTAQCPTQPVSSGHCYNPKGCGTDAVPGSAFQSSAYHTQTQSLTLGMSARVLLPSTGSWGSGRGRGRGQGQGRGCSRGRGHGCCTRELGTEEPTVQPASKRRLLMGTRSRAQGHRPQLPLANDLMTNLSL
# Assay: qHTS Assay for Inhibitors of Human Jumonji Domain Containing 2E (JMJD2E)
# Conditions: JMJD2E catalytic domain, FDH-coupled NADH fluorescence (FDH is formaldehyde dehydrogenase); series mostly up to 57.1 µM
# Also: nearly all actives have a fitted effect of over 50% in size.
# Potency is read from the fitted curve at half-maximal effect; tags tell the direction and shape of the fitted curve.
row,SMILES,Potency
1,CCC(C)NC(=O)CN1C(=O)CN=C(c2ccccc2)c2ccccc21 (configuration not stated),"inconclusive: 39.8 µM [inhibitor, single point]"
2,CCN(CC)C(=O)CN1CCN(c2ccccc2F)CC1,"inconclusive: 39.8 µM [inhibitor, single point]"
3,O=C(O)CCn1cc(C=C2C(=O)NC(=O)NC2=O)c(-c2ccc(Br)cc2)n1,"inconclusive: 14.1 µM [inhibitor, partial curve]"
4,O=C(CN1CC=C(c2ccccc2)CC1)Nc1c(Cl)cccc1Cl,"inconclusive: 39.8 µM [inhibitor, single point]"
5,O=C1NC(=O)N(c2ccccc2)C(=O)/C1=C\C=C\c1ccccc1,active: 3.98 µM
6,O=C1C=C2C=C[C@H]3C[C@]2(O1)[C@@H]1CCCCN13,inactive
7,CCCCOCCCn1c(N)c(C(=O)OCCOC)c2nc3ccccc3nc21,inactive
8,COP(=S)(OC)SCn1nnc2ccccc2c1=O,"inconclusive: 35.5 µM [inhibitor, single point]"
9,COc1ccc(N/N=C/c2c(O)n(-c3cccc(C)c3)c(=O)[nH]c2=O)cc1,inactive
10,CCN(CC)CCNC(=O)c1nn(-c2ccc(C)cc2)c(=O)c2c1c1ccccc1n2C,"inconclusive: 3.16 µM [inhibitor, full curve]"
11,O=C(/C=C/c1c[nH]c2ccccc12)c1c(O)n(CCc2ccccc2)c(=O)[nH]c1=O,"inconclusive: 39.8 µM [inhibitor, single point]"
12,c1ccc(CNCCc2ccc3c(c2)OCO3)nc1,"inconclusive: 28.2 µM [inhibitor, single point]"
13,C/C(=N\NC(=O)c1ccccc1O)c1c(O)n(Cc2ccccc2)c(=O)[nH]c1=O,"inconclusive: 28.2 µM [inhibitor, single point]"
14,Cc1cc(N2C(=O)C3CCCN3C2c2sccc2C)no1 (configuration not stated),inactive
15,Cc1nnc(SCc2nc3ccccc3c(=O)n2-c2ccccc2Cl)n1N,inactive
16,CCOC(=O)C1(CCc2ccccc2)CCN(Cc2ccc3c(c2)OCCO3)CC1,inactive
17,Clc1ccccc1CN1CCN(c2ccccc2Cl)CC1,"inconclusive: 35.5 µM [inhibitor, single point]"
18,C[Se]C[C@H](N)C(=O)O,active: 17.8 µM
19,CC(=O)c1ccc(-c2ccc(Cn3c(C)nc4cc(N)c(C)nc43)cc2)cc1,"inconclusive: 31.6 µM [inhibitor, partial curve]"
20,Cc1ccc(-n2c(O)c(/C=N/NC(=O)c3ccncc3)c(=O)[nH]c2=O)cc1,inactive
21,CCn1c(O)c(N=Nc2cccc(S(=O)(=O)N3CCOCC3)c2)c(=O)n(CC)c1=S,inactive
22,C=CC(C)(C)c1c2c(c(O)c3c(=O)c4ccc(O)c(O)c4oc13)C=CC(C)(C)O2,"inconclusive: 39.8 µM [inhibitor, single point]"
23,Cc1cc(/C=C2/C(=O)NC(=O)N(Cc3ccco3)C2=O)c(C)n1-c1ccccc1O,active: 31.6 µM
24,c1ccc(P(c2ccccn2)c2ccccn2)cc1,"inconclusive: 39.8 µM [inhibitor, single point]"

row,SMILES,Potency
1,CN1C(=O)C(=Cc2sc(=O)n(-c3ccccc3)c2N2CCCCC2)C(=O)N(C)C1=O,inactive
2,O=C1NC(=O)N(Cc2ccccc2)C(=O)/C1=C/N1CCCc2ccccc21,"inconclusive: 39.8 µM [inhibitor, single point]"
3,CCOC(=O)C1CCN(Cc2coc3ccc(Cl)cc3c2=O)CC1,"inconclusive: 39.8 µM [inhibitor, single point]"
4,CN1C(=O)C(=Cc2ccccc2OCc2ccc(Cl)cc2)C(=O)N(C)C1=O,active: 20 µM
5,Cc1ccc(N=Cc2c(O)n(C)c(=O)n(C)c2=O)nc1,"inconclusive: 31.6 µM [inhibitor, partial curve]"
6,C=C(C=O)C[C@@H]1C[C@H](O)C2OC3C[C@]4(C)OC5/C=C\CC6OC7C(CC=CCC6OC5CCCC4OC3CC2O1)OC1CC2OC3CC(=O)OC3C[C@@H](C)C[C@@]2(C)OC1C[C@@H]7C (some centres not stated),inactive
7,Cc1ccc(-n2c(O)c(/C=N/NC(=O)c3ccncc3)c(=O)[nH]c2=O)cc1C,active: 22.4 µM
8,CCN1C(=O)/C(=C\c2ccc([N+](=O)[O-])s2)C(=O)NC1=S,active: 2.51 µM
9,Cc1cc(C)n2nc(C)[n+](C)c2n1,"inconclusive: 35.5 µM [inhibitor, single point]"
10,CCC1(OC(=O)CN)C(=O)OCc2c1cc1n(c2=O)Cc2cc3ccccc3nc2-1 (configuration not stated),"inconclusive: 11.2 µM [inhibitor, partial curve]"
11,CN1CCN(Cc2cn3cccnc3n2)CC1,"inconclusive: 31.6 µM [inhibitor, single point]"
12,CC1(C)C(O)CC(O)[C@]2(C)C1CC(O)[C@]1(C)C2CC[C@@]2(C)C(c3ccoc3)CC3OC312 (some centres not stated),"inconclusive: 39.8 µM [inhibitor, single point]"
13,CC[n+]1c(/C=C/N(C)c2ccccc2)sc2ccc(Cl)cc21,inactive
14,COc1ccc(C(=O)Oc2cccc3cccnc23)cc1S(=O)(=O)N1CCOCC1,inactive
15,COc1ccc(CNCC(=O)N2CCC3(CC2)OCCO3)cc1,"inconclusive: 31.6 µM [inhibitor, single point]"
16,NC(Cn1ccc(=O)c(O)c1)C(=O)O (configuration not stated),"inconclusive: 39.8 µM [inhibitor, single point]"
17,CCN(CC)c1ccc(C=C2C(=O)NC(=S)NC2=O)cc1,"inconclusive: 28.2 µM [inhibitor, single point]"
18,Cc1cccc(N2C(=O)/C(=C/c3ccc(N4CCN(C)CC4)o3)C(=O)NC2=S)c1C,inactive
19,CNC(C(=O)c1ccccc1)C(OC)c1ccccc1 (configuration not stated),inactive
20,CN1CCc2cc(O)cc3c2C1Cc1ccc(O)c(O)c1-3 (configuration not stated),"inconclusive: 25.1 µM [inhibitor, partial curve]"
21,c1cncc(C2Nc3cccc4cccc(c34)N2)c1,active: 5.01 µM
22,O=C(Cc1ccc(Cl)c(Cl)c1)N1CCCC[C@H]1CN1CCCC1,inactive
23,COc1cc2c(cc1O)CC[n+]1cc3c(OC)c(OC)ccc3cc1-2,"inconclusive: 12.6 µM [inhibitor, partial curve]"

# Source: PubChem BioAssay AID2147 (National Center for Advancing Translational Sciences (NCATS), 2009)
